# Measured values reported in article PMC4336329 (PLoS ONE, 2015).
# Hit rate of the full screen: of about 310,000 compounds, about 14,000 (4.5%) showed an effect of 50% or more. Effects have a minus sign here. Some of the results follow.
# Biological target: human ether-à-go-go-related gene (hERG) potassium channel (human, UniProt Q12809)
# Test: primary screen, population patch clamp on CHO cells stably expressing hERG
# 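Note: peak tail current of the secondary pulse compared with the same well before compound.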
# human ether-à-go-go-related gene (hERG) potassium channel, sequence (Q12809 whole entry, looked up): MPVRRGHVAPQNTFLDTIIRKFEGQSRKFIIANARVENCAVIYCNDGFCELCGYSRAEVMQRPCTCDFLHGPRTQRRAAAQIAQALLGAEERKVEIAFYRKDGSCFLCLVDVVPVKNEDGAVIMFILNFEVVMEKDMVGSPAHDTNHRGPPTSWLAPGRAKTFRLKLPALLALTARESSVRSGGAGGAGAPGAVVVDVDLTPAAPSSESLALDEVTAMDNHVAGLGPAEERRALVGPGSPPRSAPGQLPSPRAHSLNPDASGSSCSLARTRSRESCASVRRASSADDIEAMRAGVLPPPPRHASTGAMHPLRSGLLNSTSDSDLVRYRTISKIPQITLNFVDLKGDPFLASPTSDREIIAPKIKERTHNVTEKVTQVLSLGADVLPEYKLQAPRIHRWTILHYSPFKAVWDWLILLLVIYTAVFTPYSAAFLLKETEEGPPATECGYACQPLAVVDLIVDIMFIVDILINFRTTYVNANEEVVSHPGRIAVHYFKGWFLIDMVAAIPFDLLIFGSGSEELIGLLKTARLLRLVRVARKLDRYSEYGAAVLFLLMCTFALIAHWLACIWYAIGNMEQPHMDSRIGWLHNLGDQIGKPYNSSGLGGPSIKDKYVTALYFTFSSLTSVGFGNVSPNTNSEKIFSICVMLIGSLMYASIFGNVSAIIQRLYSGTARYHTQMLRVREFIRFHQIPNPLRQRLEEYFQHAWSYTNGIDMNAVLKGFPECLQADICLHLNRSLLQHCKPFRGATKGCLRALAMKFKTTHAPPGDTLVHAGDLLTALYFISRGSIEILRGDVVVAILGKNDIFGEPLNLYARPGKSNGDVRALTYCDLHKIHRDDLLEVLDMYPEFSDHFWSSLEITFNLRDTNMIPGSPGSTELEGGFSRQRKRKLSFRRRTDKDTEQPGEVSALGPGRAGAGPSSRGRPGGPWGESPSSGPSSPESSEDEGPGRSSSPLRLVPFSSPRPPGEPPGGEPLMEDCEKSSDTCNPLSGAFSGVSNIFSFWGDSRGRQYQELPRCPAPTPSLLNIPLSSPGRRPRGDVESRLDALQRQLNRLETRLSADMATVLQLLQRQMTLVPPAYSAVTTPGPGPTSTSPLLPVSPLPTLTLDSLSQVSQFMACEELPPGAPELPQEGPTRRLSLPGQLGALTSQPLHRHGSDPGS
row,SMILES,"hERG current change (%, negative = inhibition) at 10uM [%]"
1,Cc1ccc(S(=O)(=O)Nc2nnc(C(C)(C)C)s2)cc1,8.56
2,O=C(N/N=C/c1ccsc1)C1CC1,24.6
3,COc1ccc(Cl)cc1S(=O)(=O)N1CCCC(C(=O)NCc2ccncc2)C1 (stereo not drawn),-25.7
4,Fc1cccc(/C=N/Nc2ncnc3nc[nH]c23)c1,11.1
5,CN1C(=O)c2ccc(C(=O)NCc3ccccc3)cc2C1=O,7.61
6,CC(=O)/C=C(\C)Nc1ccc(-c2cnc(-c3ccccc3)o2)cc1,-4.59
7,COc1ccc(C2(CNC(=O)c3cccc([N+](=O)[O-])c3)CCOCC2)cc1OC,-10.8
8,CCOc1ccc(C(=O)N2CCN(C(=O)c3ccco3)CC2)cc1OCC,-5.57
9,Nc1nc(SCC(=O)N2CCc3ccccc32)[nH]c(=O)c1-c1ccccc1,-10.7
10,CCOC(=O)c1c(C)n(C)c2cc(Br)c(C(=O)OC)cc12,-11.1
11,O=C(CSc1ncn[nH]1)OCN1C(=O)c2ccccc2C1=O,5.07
12,COc1ccccc1NC(=O)c1ccc(CN(c2cc(Cl)ccc2C)S(=O)(=O)c2ccccc2)cc1,-7.35
13,COc1ccc2cc(C(c3nnnn3C3CCCCC3)N3CCCCCC3)c3nnnn3c2c1 (stereo not drawn),4.6
14,O=C(Nc1ccccc1N1CCCCC1)C1=COCCO1,-32.6
15,COC(=O)C1=C(Nc2ccccc2NC(=O)c2ccccc2C(=O)O)CSC1,8.85
16,CCN(CC)P(=O)(Nc1ccc(Br)cc1)c1c(C)nn(CCC#N)c1NC(=O)c1ccc(Cl)cc1 (stereo not drawn),7.19
17,CCNC(=S)NNC(=O)c1cc(-c2cccc(C)c2)nc2ccccc12,5.42
18,COc1cccc(-c2cccc(NC(=O)C3CCN(CC4CCOC4)CC3)c2)c1 (stereo not drawn),-53.2
19,Cc1ccc2c(c1)N(C(=O)CCC(=O)NCc1cccc(Cl)c1)CC(C)O2 (stereo not drawn),-45.9
20,Cc1nc(C(=O)NCCO)cc2c1[nH]c1ccccc12,17.1
21,CCOC(=O)C1CCN(Cc2nnnn2CCc2ccccc2)CC1,-4.94
22,CCOc1ccc(NC(=O)CN2CCN(CC(=O)Nc3cccc(F)c3)CC2)cc1,-86.3

row,SMILES,"hERG current change (%, negative = inhibition) at 10uM [%]"
1,CN(C)Cc1nnnn1-c1ccccc1,-26
2,CCOc1ccc(C(=O)CC(C(=O)O)N2CCCCC2)cc1 (stereo not drawn),7.67
3,COc1ccc(C(=O)Nn2cnc3scc(-c4cccs4)c3c2=O)c(O)c1,-6.78
4,CC1=C(C(=O)OC2CCCC2)C(c2coc3ccccc3c2=O)C2=C(CCCC2=O)N1 (stereo not drawn),-3.33
5,C=CCSc1nc(C)c(Cc2cccc3ccccc23)c(=O)[nH]1,2.87
6,COc1cccc(CN2CCC(C(=O)N3CCN(c4ccccc4F)CC3)CC2)c1OC.O=C(O)C(=O)O,-10.2
7,N#CC1=C(N)N(c2ccccc2)C2=C(C(=O)CCC2)C1c1cccs1 (stereo not drawn),-28.1
8,O=C(O)c1ccc2oc(SCC(=O)N3CCCCC3)nc2c1,-33.7
9,O=c1[nH]c(=O)n(Cc2ccccc2)c2c1CCC2,6.8
10,COc1ccccc1-n1cnc2cc(C(=O)NCc3ccco3)ccc21,-14.8
11,O=C(C1=C[C@H](c2coc3ccccc3c2=O)C[C@H](OCc2ccc(CO)cc2)O1)N1CCN(Cc2ccc3c(c2)OCO3)CC1,-57.2
12,O=C(O)CCN1CC2([N+](=O)[O-])C=CC(=O)C([N+](=O)[O-])(C1)C2CC(=O)c1ccccc1 (stereo not drawn),10.6
13,C/C(=N\N=C\c1cccc(F)c1)c1nnn(-c2nonc2N)c1C,0.95
14,CC(C)Cn1c(N)c(C(=O)COC(=O)c2ccc(Cl)cc2)c(=O)n(C)c1=O,-37.4
15,CC12C(=O)N(c3ccccn3)C(=O)C1C1C=CC2C1 (stereo not drawn),13.7
16,Cc1cc(C)nc(/N=C(\N)N2CCCCCC2)n1,-3.86
17,O=C(C1CCN(CC2CCCCC2)CC1)N1CCCC1,9.26
18,Cc1nnc(SCC(=O)N(CC(C)C)c2c(N)n(Cc3ccccc3)c(=O)[nH]c2=O)n1N,9.97
19,Cc1cc(C)n2nc(C(=O)OCC(=O)Nc3ccc4c(c3)OC(F)(F)O4)nc2n1,-63.8
20,O=C(CNc1ccc(F)cc1F)NC(=O)NCc1ccco1,1.72
21,O=C(O)c1ccc2c(=O)[nH]c(CCl)nc2c1,-3.35
22,CSc1nccc(-c2nn(-c3ccc(C)cc3)ccc2=O)n1,-15

row,SMILES,"hERG current change (%, negative = inhibition) at 10uM [%]"
1,COc1ccc(-c2nnc(SCCc3ccccc3)n2N)cc1,-18.6
2,CC(=O)c1cccc(NC(=O)c2sc(Cl)nc2C)c1,22.7
3,O=C(COC(=O)CSc1ccccc1)NCCNC(=O)COC(=O)CSc1ccccc1,-12.6
4,O=C(CCC(=O)N(CC(=O)NC1CCCCC1)Cc1ccc(F)cc1)Nc1nccs1,-3.45
5,CC(=O)c1ccc(OCc2ccc(C(=O)c3ccccc3)cc2)cc1,0.433
6,CCN(CC(=O)Nc1c(F)cccc1F)C(=O)CC1CCCC1,-7.25
7,CC(C)(Oc1ccc(Cl)cc1)C(=O)N/N=C/c1cn[nH]c1-c1ccccc1,-11.2
8,Cc1ccc2nsnc2c1NC(=O)c1ccccc1[N+](=O)[O-],7.96
9,c1ccc(-c2ccncc2)nc1,21.4
10,CCOc1ccccc1NC(=O)CSc1nnc(CNC(=O)c2ccccc2F)o1,-1.3
11,Cc1ccc(/C=N/Nc2nncn2N)cc1.Cl,15.3
12,C/C(=N/OC(=O)c1cccc(C(F)(F)F)c1)c1cnccn1,5
13,C=CCn1c(=O)c2ccccc2n2c(Sc3nnnn3-c3ccccc3)nnc12,0.641
14,O=C(NC(Cc1ccc(F)cc1)C(=O)O)c1ccccc1 (stereo not drawn),13.8
15,CN1/C(=C/C(=O)C2CCC2)Sc2ccccc21,-7.2
16,COc1cc(/C=N/NC(=O)CN(CCc2ccccc2)S(=O)(=O)c2ccc(NC(C)=O)cc2)cc(OC)c1OC,-3.41
17,O=C(Cc1n[nH]c(=O)[nH]c1=O)N/N=C/c1cccc(Cl)c1,7.46
18,CCN(C(=O)c1ccc(C)c(Br)c1)c1ccccc1,-20.5
19,O=C1C2ON(c3ccccc3)C(c3ccncc3)C2C(=O)N1c1ccccc1 (stereo not drawn),-3.36
20,COCCn1cnc2c1c(=O)n(Cc1ccc(C#N)cc1)c(=O)n2Cc1ccccc1,-34.3
21,CCN(CC)S(=O)(=O)c1ccc2[nH]c(=O)cc(C(=O)Nc3ccc(C)cc3)c2c1,3.73
22,O=C(c1ccco1)N1CCN(C(=S)Nc2ccccc2C(F)(F)F)CC1,2.09

row,SMILES,"hERG current change (%, negative = inhibition) at 10uM [%]"
1,COc1ccc(-c2ccc(-c3nnc(-c4cc(OC)ccc4OC)o3)cc2)cc1,3.88
2,Cc1ccc(C(=O)COC(=O)CNC(=O)C(c2ccccc2)c2ccccc2)cc1[N+](=O)[O-],4.33
3,Cc1nc2ccccc2c(=O)n1NC(=O)c1ccccc1Cl,7.14
4,COc1cc(CCC(=O)Nc2ccc(S(=O)(=O)NC3=NCCCCC3)cc2)cc(OC)c1OC,9.3
5,CCC(C(=O)NCc1ccccc1OC)c1ccccc1 (stereo not drawn),-13.1
6,COc1ccc(-c2nc(C)sc2CC(=O)O)cc1,5.41
7,COc1ccc(C(=O)CCC(=O)N2CCN(c3cc(C)ccc3C)CC2)cc1,-11.5
8,Cn1nc(CC(=O)Nc2ccc3c(c2)OCCO3)c2ccccc2c1=O,3.93
9,CCCn1nnnc1NCc1cccc(OC)c1OC,5.88
10,COc1cc(N2CCCC2)c(OC)cc1/C=C(/C#N)c1cccc(Br)c1,16.1
11,COC(=O)Cc1cc(OC)c(OC)cc1Cc1cc(OC)c(OC)cc1CC(=O)OC,22.6
12,CCn1c(COc2ccc(C)cc2)nnc1SCC(=O)Nc1ccc(S(N)(=O)=O)cc1,-2.76
13,COc1ccc(N2CCN(c3oc(-c4ccc(OC)c(OC)c4)nc3C#N)CC2)cc1,-17
14,CCOc1ccc(C(C(=O)NC2CCCC2)N(C(=O)c2snc(C(N)=O)c2N)c2cccc(O)c2)cc1 (stereo not drawn),23.5
15,Cc1ccc(S(=O)(=O)/C(C#N)=C/c2c(N3CC(C)OC(C)C3)nc3ccccn3c2=O)cc1 (stereo not drawn),-46.3
16,Cc1ccc(S(=O)(=O)N2CCC(C(=O)N[C@@H](C)C(=O)NCc3ccco3)CC2)cc1,-3.8
17,Cc1cc(Sc2nccn2C)ncc1[N+](=O)[O-],8.24
18,COc1cc(/C=N/NC(=O)c2cccnc2)ccc1OCC(=O)N1CCOCC1,6.31
19,COc1cccc(-c2nnc(-c3ccccc3NC(=O)c3ccc(C(C)(C)C)cc3)o2)c1,-6.59
20,CCOC(=O)c1cc(C(=O)OCC)c(=O)[nH]c1N1CCCCC1,12.2
21,CCOC(=O)C1=C(CN2CC(C)CC(C)C2)NC(=O)NC1c1ccc2c(c1)OCO2 (stereo not drawn),-8.66
